Drawing on the RNAGym collection of RNA variant scans (doi:10.1093/nar/gkz1192), this text covers self-cleavage for 34 variants.

The source gives no read counts; variants with many changes may rest on few reads.

B1: CPEB3 Ribozyme (parent)
chain: UAACAGGGGGCCACAGCAGAAGCGUUCACGUCGCAGCCCCUGUCAGAUUCUGGUGAAUCUGCGAAUUCUGCUGUAUAUCUC

This series covers variants of B1. Kind of series: self-cleavage, relative activity (ratio to wild type); higher = more cleavage; in vitro, sequencing. In outline:
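CPEB3 self-cleaving ribozyme mutant libraries were made by rounds of error-prone PCR, barcoded, and transcribed in vitro with T7 RNA polymerase for 5 hours at 37°C. Cleavage occurred during transcription and a 15 min DNase I step before EDTA stop. RNAs were reverse transcribed with template switching and Illumina-sequenced, with DNA sequencing mapping barcodes to variants. Relative activity is the variant's cleaved/total read fraction divided by wild type's (minimum 5 reads), averaged across three batches.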
In the case of UAACAGGUGGCCACAGCAGGAGCGUUCACGUCGCAGCCCCUGUCAGAUUCUGGUGAAUCUGCGAAUUCCGCUGUAUAUCAC, the self-cleavage was 0.04.

For UAACAGGUGGCCACAGCGGAAGCGCUCACGUCGCAGCCCCUGUCGGAUUCUGGUGAAUCUGCGAAUUCUGCUGUAUAUCUC, the self-cleavage was determined as 0.37.

As for UAACAGGUGGCCACGGCAGAAGCGUUCACGUGGCAGCCCCUGUCGGAUUCUGGUGAUUCUGCGAAUUCUGCUGUAUAUCUC, the self-cleavage came to 0.05.

Turning to UAACAGGUGGCCACCGCAGAAGCGUUCACGUCGCAGCCCCUGUCAGAUUCUGGUGAAUCUGCGAAUCCUGCUGUAUAUCUC, the self-cleavage is 0.11.

UAACAGGUGGCCACAGCAGAGGCGUUCACGUCGCAGCCCCUGUCAGAUUCUGGUGAAUCUGCGAAUUCUGCCGUAUAUCUC: the self-cleavage worked out at 0.08.

Take UAACAGGCGGCCACAGCAGAAGCGUUCACGUCGCAGCCCCUGUCAGAUCCUGGUGAAUCUGCGAACUCUGCUGUAUAUCUC: the self-cleavage was 0.06.

With UAACAGGUGGCCGCAGCAGAAGCGUUCACGUCGCAGCCCCUGUCAGAUUCUGGUGAAUCUGUGAGUUCUGCUGUAUAUCUC, the self-cleavage turned out to be 0.04.

Take UAACAGGUGGCCACAGCGGAAGCGAUCACGUCGCAGCCCCUGUCAGGUUCUGGAGAAUCUGCGUAUUCUGCUGUAUAUCUC: the self-cleavage turned out to be 0.04.

For UAACAGGUGGCCUCAGCAGGAGCGUUCACGUCGCGGCCCCUGUCAGGUACAGGUGAAUCUGCGAAUUCUGCUGUAUAUCUC, the self-cleavage stood at 0.03.

For UAACAGGUGGCCACAGCAGAAGCGUUCGCGUCGCAGCCCCUGCCAGAUUCUGGUGAAUCUGCGAAUUCUGCUGUAUAUCUC, the self-cleavage was 0.11.

For the variant UAACAGGUGGCCUCUGCAGAAGCGUCCACGUCGCAGCCCCUGUCAGAUUCUGGUGAAUCUGCGAAUUCUGCCGUAUAUCUC, the self-cleavage is 0.06.

Take UAACAGGUGGCCUCAGCAGAAGCGUUCACGUCGCUGCCCCUGUCAGUUUCUGGUGAAUCUGCGAAUUCUGCUGUAUAUCUC: the self-cleavage turned out to be 0.07.

For UAACAGGUGGCCACAGCAGGAGCGUUCACGCCGCUGCCCCUGUCAGAUUCUGGUGAAUCUGCGUAUUCUGCUGUGUAUCUC, the self-cleavage stood at 0.08.

On to UAACAGGUGGCCACAGCAGUAGCGUUCACGUCGCUGCCCCUGACAGAUUCUGGUGAAUCUGCGAAUUCUGCUGUAUAUCUC, for which the self-cleavage was 0.1.

UAACAGGUGGCCUCAGCAGGAGCGUUCACGUCGCAGCCCCAGUCAGAUUCUGGUGAAUCUGCGAAUUCUGCUGUAUUUCUC: the self-cleavage came out at 0.05.

With UAACAGGUGGCCACAGCUGAAGCGUUCACGUCGCGGCCCCUGUCAGAUUCUGGUGAGUCUCCGAAUUCUGCUGUAUAUCUC, the self-cleavage came out at 0.07.

Consider UAACAGGUGGCCACAGCGGAAGCGUUCACGUCGCAGCCCCUGUCGGAUUCUGGUGAAUCAGCGAAUUCUGCUGUAUAUCUC, for which the self-cleavage was found to be 0.05.

For UAACAGGUGGCCUCAGCAGAGGCGUACACGUCGCUGCCCCAGUCAGAUUCUGGUGAAUCUGCGAAUUCUGCUGUAUUUCUC, the self-cleavage was found to be 0.03.

On to UAACAGGUGGCCGCAGCAGAAGCGUUCACGUCGCAGCCCCUGUCAGAUUCUGGUGAAUCUGCGAAUUCUGCAGUACAUCUC, for which the self-cleavage worked out at 0.06.

For the variant UAACAGGUGGCCUCAGCAGAAGCGUUCACGUCGCAGCCCCUGUCAGAUUCUAGUGGAUCUGCGAAUUCUUCCGUAUAUCUC, the self-cleavage was found to be 0.05.

In the case of UAACAGGUGGCCACAGCAGAGGCGUUCACGCCGCAGCCCCUGUCAGAUUCUGGUGAAUCCGCGAAUUCUGCCGUAUAUCUC, the self-cleavage turned out to be 0.05.

For the variant UAACAGGUGGCCACAGCAGGAGCGUUCACGUCGCAGCCCAUGUCAGGCACUGGUGAAUCUGCGAAUUCCGCUGUAUAUCUC, the self-cleavage worked out at 0.09.

As to UAACAGGUGGCCACAGCGGAAGCGCUCACGUCGCAGCCCCUGUCAGAUUCUGGUGGAUCUGCGAAUUCAGCUGUAUAUCGC, the self-cleavage was 0.03.

As to UAACAGGUGGCCACAGCAGUAGCGUUCGCGUCGCAGCCCCUGUCAGAUUCUGGUGAAUCUGCGGAUUCUGCUGUAUACCUC, the self-cleavage worked out at 0.05.

For UAACAGGUGGCCACAGCAGUAGCGUUCACGUCGCCGCCCCUGUCAGAUUCUGGUGAAUCUGCGAAUUCUGCUGUAUAUCUC, the self-cleavage came out at 0.08.

As to UAACAGGUGGCCUCAGCAGAAGCGUUCACGUCGCGGCCCCUGUCAGAUUCUGGUGAAUCUGCGAAUUCUGCUGUAUAUCUC, the self-cleavage was found to be 0.24.

Take UAACAGGUGGCCACAGCAGAGGCGUUCACGUCGCAGCCCCUGUCAGACUCUGGUGAAUCUGCGAAUCCUGCUGUAUAUCUC: the self-cleavage was found to be 0.04.

Take UAACAGGUGGCCACAGCAGAUGCGUUCGCGUCGCAGCCCCUGUCAGAUUCUGGUGGAUCUGCGAAUUCUGCAGUAUAUCUC: the self-cleavage was 0.09.

As to UAACAGGUGGCCACGGCAGAAGCGUUCACGUCGCAGCCCCUGUCUGAUUCUGGUGAAUCUGCGAAUCCUGCUGUGUAUCUC, the self-cleavage is 0.1.

Take UAACAGGUGGCCACGGCAGAAGCGUUCACAUCGCAGCCCCUGUCAGAUUCUGGUGAAUCUGCGAAUUCUGCUGUAUAUCUC: the self-cleavage is 0.2.

As for UAACAGGUGGCCACUGCAGAAGCGUCCACGUCGCAGCCCCUGUCAGAUACUGGUGAAUCUGCGAAUUCUGCUGUAUAUCUC, the self-cleavage amounted to 0.13.

Take UAACAGGUGGCCUCAGCAGGAGCGUUCACGUUGCAGCCCCUGUCGGAUUCUGGUGAAUCUGCGAAUCCUGCUGUAUACCUC: the self-cleavage is 0.05.

For the variant UAACAGGUGGCCACAGCAGAAGCGUUCGCGUCGCAGCCCCCGUCAGAUUCUGGUGAAUCUGCGAAUUCCGCUGUAUAUCUC, the self-cleavage was determined as 0.11.

Take UAACAGGCGGCCACAGCAGAAGCGUUCACGUCGCAGCCCCUGUCAGAUCCUGGUGAACCUGCGAAUUCUGCUGUAUACCUC: the self-cleavage was 0.06.
